{
  "source": "the supplement of paper PMC4166925",
  "note": "± gives the standard deviation of the averaged measurements. Over roughly 33,000 sequences, “E-score (dimensionless, -0.5 to 0.5)” has its median near -0.046; the highest 2% begin near 0.36. The list shows a part of the results.",
  "data": [
    {"test_system": "T1, SpTbr T-box DNA-binding domain (GST fusion)", "T1 sequence": "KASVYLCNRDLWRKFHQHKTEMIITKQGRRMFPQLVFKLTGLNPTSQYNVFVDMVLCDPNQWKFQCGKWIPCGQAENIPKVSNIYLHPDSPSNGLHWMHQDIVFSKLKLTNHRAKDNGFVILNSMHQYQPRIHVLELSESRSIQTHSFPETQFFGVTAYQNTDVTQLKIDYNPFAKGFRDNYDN", "experiment": "PBM E-score of 8-mer (E-score (dimensionless, -0.5 to 0.5)); Tbr is Tbrain of the sea star Patiria miniata (Pm) or the sea urchin Strongylocentrotus purpuratus (Sp); higher = stronger binding preference; most listed sequences are background and not binding sites", "conditions": "the construct has about 5 more residues each side", "method_in_brief": "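GST-fused Tbr T-box DNA-binding domains (the whole T-box plus about five flanking residues) were expressed in BL21 E. coli at 20 °C and purified by glutathione affinity chromatography. Universal Agilent oligonucleotide arrays were made double-stranded by primer extension, incubated with 200 nM protein in PBS (pH 7.5), then scanned and quantified. Every ungapped 8-mer was scored from probe intensities. The Universal PBM Analysis Suite gave each word an enrichment E-score, averaged over duplicate arrays.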", "values": [
      {"sequence": "GAATTTCA", "PBM E-score of 8-mer": "0.056 ± 0.018"},
      {"sequence": "CTCATTGC", "PBM E-score of 8-mer": "-0.186 ± 0.051"},
      {"sequence": "CCAGGCAC", "PBM E-score of 8-mer": "-0.105 ± 0.066"},
      {"sequence": "CCCTCTCG", "PBM E-score of 8-mer": "0.0788 ± 0.023"},
      {"sequence": "CAACCAAC", "PBM E-score of 8-mer": "0.0184 ± 0.043"},
      {"sequence": "TTCGGAAA", "PBM E-score of 8-mer": "-0.161 ± 0.05"},
      {"sequence": "ATTAGATA", "PBM E-score of 8-mer": "-0.141 ± 0.046"},
      {"sequence": "AGCCTCCA", "PBM E-score of 8-mer": "-0.0984 ± 0.049"},
      {"sequence": "TGAGGGCA", "PBM E-score of 8-mer": "-0.126 ± 0.033"},
      {"sequence": "GGGTCAAC", "PBM E-score of 8-mer": "-0.0066 ± 0.041"},
      {"sequence": "ACATCTAC", "PBM E-score of 8-mer": "0.0904 ± 0.031"},
      {"sequence": "GGGTTCGA", "PBM E-score of 8-mer": "-0.0443 ± 0.0019"},
      {"sequence": "GCAGTTAA", "PBM E-score of 8-mer": "-0.0809 ± 0.016"},
      {"sequence": "TCCTACCA", "PBM E-score of 8-mer": "-0.0283 ± 0.018"},
      {"sequence": "ATTCCTTG", "PBM E-score of 8-mer": "0.115 ± 0.025"},
      {"sequence": "GAAGGAAA", "PBM E-score of 8-mer": "-0.112 ± 0.051"},
      {"sequence": "AATATCCC", "PBM E-score of 8-mer": "-0.155 ± 0.034"},
      {"sequence": "ATTAGGGC", "PBM E-score of 8-mer": "-0.2202 ± 0.002"},
      {"sequence": "CAAATGCG", "PBM E-score of 8-mer": "0.0347 ± 0.021"},
      {"sequence": "ATTGAACC", "PBM E-score of 8-mer": "-0.169 ± 0.0091"},
      {"sequence": "AGCCGCAC", "PBM E-score of 8-mer": "0.195 ± 0.061"},
      {"sequence": "AACGTCAG", "PBM E-score of 8-mer": "-0.218 ± 0.022"},
      {"sequence": "CATCGTTC", "PBM E-score of 8-mer": "-0.149 ± 0.11"},
      {"sequence": "AACGCTGT", "PBM E-score of 8-mer": "0.042 ± 0.051"},
      {"sequence": "GATCCAGC", "PBM E-score of 8-mer": "-0.175 ± 0.0069"},
      {"sequence": "ATTCTGGC", "PBM E-score of 8-mer": "-0.104 ± 0.0095"},
      {"sequence": "AAAGAAAC", "PBM E-score of 8-mer": "-0.184 ± 0.096"},
      {"sequence": "AAAAATCC", "PBM E-score of 8-mer": "-0.0936 ± 0.053"},
      {"sequence": "ATGAGCAC", "PBM E-score of 8-mer": "-0.14 ± 0.0091"},
      {"sequence": "ACGTGAAG", "PBM E-score of 8-mer": "0.141 ± 0.041"},
      {"sequence": "CCACGTAC", "PBM E-score of 8-mer": "-0.00917 ± 0.0088"},
      {"sequence": "CAGCGAGA", "PBM E-score of 8-mer": "0.00192 ± 0.0009"},
      {"sequence": "AGCTATAA", "PBM E-score of 8-mer": "-0.1776 ± 0.0012"},
      {"sequence": "CGGGGAAG", "PBM E-score of 8-mer": "-0.206 ± 0.038"},
      {"sequence": "CCAAGACC", "PBM E-score of 8-mer": "-0.22 ± 0.035"},
      {"sequence": "ATCGTTCA", "PBM E-score of 8-mer": "-0.268 ± 0.011"},
      {"sequence": "AGATATAA", "PBM E-score of 8-mer": "-0.047 ± 0.063"},
      {"sequence": "CTTTTTCA", "PBM E-score of 8-mer": "-0.006 ± 0.059"},
      {"sequence": "CTAAAGAC", "PBM E-score of 8-mer": "-0.122 ± 0.017"},
      {"sequence": "ACTGATTG", "PBM E-score of 8-mer": "-0.0426 ± 0.025"},
      {"sequence": "AACCTATT", "PBM E-score of 8-mer": "-0.0497 ± 0.063"},
      {"sequence": "AGGGAACG", "PBM E-score of 8-mer": "-0.0114 ± 0.11"},
      {"sequence": "CCCTAAGA", "PBM E-score of 8-mer": "-0.255 ± 0.045"},
      {"sequence": "ATCCACCC", "PBM E-score of 8-mer": "0.0342 ± 0.026"},
      {"sequence": "TCAGTGAA", "PBM E-score of 8-mer": "-0.00525 ± 0.015"},
      {"sequence": "ACCTGGCG", "PBM E-score of 8-mer": "0.261 ± 0.028"},
      {"sequence": "CCATGATC", "PBM E-score of 8-mer": "-0.148 ± 0.008"},
      {"sequence": "GGCCTAAC", "PBM E-score of 8-mer": "-0.0491 ± 0.032"},
      {"sequence": "CAACTGCC", "PBM E-score of 8-mer": "0.202 ± 0.01"},
      {"sequence": "GCTAGGGA", "PBM E-score of 8-mer": "-0.0791 ± 0.072"},
      {"sequence": "TAACCGGA", "PBM E-score of 8-mer": "-0.0629 ± 0.014"},
      {"sequence": "CACTACAC", "PBM E-score of 8-mer": "0.153 ± 0.06"},
      {"sequence": "CGTTTGGA", "PBM E-score of 8-mer": "-0.0006 ± 0.068"},
      {"sequence": "CTTTGGCC", "PBM E-score of 8-mer": "-0.221 ± 0.031"},
      {"sequence": "CGGGCATA", "PBM E-score of 8-mer": "-0.162 ± 0.07"},
      {"sequence": "AAGCTGCG", "PBM E-score of 8-mer": "0.0852 ± 0.04"},
      {"sequence": "AATGAGAC", "PBM E-score of 8-mer": "0.0249 ± 0.11"},
      {"sequence": "TCAACCAA", "PBM E-score of 8-mer": "-0.0454 ± 0.0034"},
      {"sequence": "ACCTTGAT", "PBM E-score of 8-mer": "0.044 ± 0.087"},
      {"sequence": "TGATGTAA", "PBM E-score of 8-mer": "-0.155 ± 0.033"},
      {"sequence": "GTGGTTCA", "PBM E-score of 8-mer": "-0.0511 ± 0.085"},
      {"sequence": "GAGTAAAC", "PBM E-score of 8-mer": "-0.0192 ± 0.019"},
      {"sequence": "ATTACGTA", "PBM E-score of 8-mer": "-0.174 ± 0.043"},
      {"sequence": "GTTAGAAC", "PBM E-score of 8-mer": "0.00874 ± 0.049"},
      {"sequence": "AGCTCGGG", "PBM E-score of 8-mer": "-0.278 ± 0.035"},
      {"sequence": "AATCAGTA", "PBM E-score of 8-mer": "-0.167 ± 0.033"},
      {"sequence": "GCGATGTA", "PBM E-score of 8-mer": "0.128 ± 0.011"},
      {"sequence": "AGTACCAG", "PBM E-score of 8-mer": "-0.131 ± 0.05"},
      {"sequence": "AGTCTGTG", "PBM E-score of 8-mer": "-0.0866 ± 0.072"},
      {"sequence": "GGACGTGA", "PBM E-score of 8-mer": "0.222 ± 0.0016"},
      {"sequence": "ACCTCTGC", "PBM E-score of 8-mer": "0.0995 ± 0.071"},
      {"sequence": "AATGCTTC", "PBM E-score of 8-mer": "-0.0707 ± 0.0038"},
      {"sequence": "CAAACCTA", "PBM E-score of 8-mer": "-0.166 ± 0.047"},
      {"sequence": "AGCATTCC", "PBM E-score of 8-mer": "0.034 ± 0.0043"},
      {"sequence": "CTTTTTTA", "PBM E-score of 8-mer": "-0.153 ± 0.054"},
      {"sequence": "CAACATAG", "PBM E-score of 8-mer": "-0.0982 ± 0.027"},
      {"sequence": "ACCTACTA", "PBM E-score of 8-mer": "0.17 ± 0.057"},
      {"sequence": "TTACCGAA", "PBM E-score of 8-mer": "-0.114 ± 0.0049"},
      {"sequence": "TGATATCA", "PBM E-score of 8-mer": "0.213 ± 0.018"},
      {"sequence": "ATTATGCG", "PBM E-score of 8-mer": "-0.179 ± 0.0042"},
      {"sequence": "ATAGGATC", "PBM E-score of 8-mer": "-0.234 ± 0.07"},
      {"sequence": "ACTGTGAG", "PBM E-score of 8-mer": "0.269 ± 0.031"},
      {"sequence": "CTATCACA", "PBM E-score of 8-mer": "0.347 ± 0.013"},
      {"sequence": "GCTTACCA", "PBM E-score of 8-mer": "-0.03002 ± 0.00015"},
      {"sequence": "CCAGGGGG", "PBM E-score of 8-mer": "-0.046 ± 0.0097"},
      {"sequence": "CCGGGGTA", "PBM E-score of 8-mer": "-0.108 ± 0.12"}
    ]}
  ]
}
